# Laboratory results: PubChem BioAssay AID686970 (National Center for Advancing Translational Sciences (NCATS), 2013)
# The campaign covered roughly 360,000 compounds. About 6,000 (1.7%) were called active. Inconclusive means that the source gave no clear call. Such entries were picked first, then a sample of the others. The call rests on the fitted dose curve; in most records, active means well fitted cell-killing curve with a large enough effect; inconclusive means small, poorly fitted or top-dose-only effect, or effect the other way; inactive means flat fitted curve, though single readings scatter. No potency is given beside an inconclusive call; the fits are too rough.
# Assay: qHTS for induction of synthetic lethality in tumor cells producing 2HG: qHTS for the HT-1080-NT fibrosarcoma cell line;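 further: NT is the 2HG producing partner of a matched IDH1 knockdown line; nearly all actives have a fitted effect of over 55% in size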
# Details: HT-1080-NT fibrosarcoma viability, CellTiter-Glo ATP luminescence, 48 h; series mostly up to 46.1 µM
# Summary of the method: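 A 48-hour cytotoxicity screen used HT-1080-NT cells plated 2 hours before compound delivery. ATP-based CellTiter-Glo luminescence measured viability, normalized to DMSO and no-cell controls.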
# Potency means the concentration at half of the fitted maximal effect; tags describe the fitted curve by direction and shape.
row,Compound,Potency
1,O=C(N/N=C/c1ccc(Cl)cc1)c1ccc2nc[nH]c2c1,"inconclusive [cytotoxic, single point]"
2,CCN(CC)c1ccc(C(=O)NNC(=O)CCNC(=O)c2ccccc2)cc1,inactive
3,Oc1c(CN2CCCCC2)ccc2cccnc12,active: 2.06 µM
4,COc1cc2oc(=O)cc(-c3cccc(-c4cccc(C)c4)c3)c2c(OC)c1OC,"inconclusive [cytotoxic, single point]"
5,CC(NC(=O)C1CCN(CCOc2ccc(Cl)cc2)CC1)c1cccc2ccccc12 (stereo not drawn),"inconclusive [cytotoxic, single point]"
6,COc1ccc(C(CCNCc2ccc(OC(C)C)cc2)c2ccccc2OC)cc1 (stereo not drawn),"inconclusive [cytotoxic, single point]"
7,O=C(NCc1ccccc1C(F)(F)F)C1CC(c2ccc(C(F)(F)F)cc2)=NO1 (stereo not drawn),inactive
8,Cc1ccc(Cl)cc1-n1c(SCC(=O)NCCC2=CCCCC2)nc2n[nH]c(C)c2c1=N,"inconclusive [cytotoxic, single point]"
9,O=C(/C=C/c1ccccc1)Nc1ccc(Cl)cn1,"inconclusive [cytotoxic, full curve]"
10,O=C(Cn1c2ccc(F)cc2c2nc3n(c(=O)c21)CCS3)NCC1CCCO1 (stereo not drawn),inactive
11,Cc1ccnc(Nc2cccnc2)n1,"inconclusive [rising, single point]"
12,Cc1cc(OCC(=O)O/N=C(\N)c2ccccc2)ccc1Br,"inconclusive [rising, partial curve]"
13,COc1ccccc1NC(=O)C(C)NC(c1ccccc1)c1ccccc1 (stereo not drawn),inactive
14,CCOC(=O)N1CCN(c2c(NCc3ccc(Cl)cc3)c(=O)c2=O)CC1,"inconclusive [cytotoxic, full curve]"
15,Oc1ccc(NC(=S)N=Nc2c(O)[nH]c3ccc(Br)cc23)cc1,"inconclusive [cytotoxic, single point]"
16,Cc1ccc2c(c1)c1c(n2CC(O)CNC2CCCC2)CCCC1 (stereo not drawn),"inconclusive [cytotoxic, single point]"
17,OC(c1cc(F)cc(Cl)c1)c1ncc(-c2ccc3ccccc3c2)[nH]1 (stereo not drawn),"inconclusive [cytotoxic, single point]"
18,CC(=O)NC(c1ccc2ccccc2c1)c1ccc2cccnc2c1O (stereo not drawn),"inconclusive [cytotoxic, single point]"
19,O=C(COC(=O)/C=C/C(=O)OCC(=O)NC12CC3CC(CC(C3)C1)C2)NC12CC3CC(CC(C3)C1)C2,"inconclusive [cytotoxic, single point]"
20,Oc1ccc2sc(-c3ccccc3O)c(-c3ccc(OCCN4CCCCC4)cc3)c2c1,"inconclusive [cytotoxic, partial curve]"
21,COc1ccc(-c2[nH]c3ccccc3c2SCCNC(=O)c2ccccc2)cc1,"inconclusive [cytotoxic, single point]"
22,Cc1ccc(NC(=O)C2CCN(S(=O)(=O)c3c(C)[nH]c(=O)[nH]c3=O)CC2)cc1,"inconclusive [cytotoxic, single point]"

row,Compound,Potency
1,CC(C)(C)C(=O)N1CCC2CC1c1cc(-c3ccc4c(c3)OCO4)ccc12 (stereo not drawn),"inconclusive [cytotoxic, single point]"
2,COc1ccc(C(O)(C2CCCCC2)C(CN2CCOCC2)c2ccccc2)cc1 (stereo not drawn),"inconclusive [cytotoxic, single point]"
3,O=[N+]([O-])c1cc([N+](=O)[O-])c(Oc2cncc(Cl)c2)cc1NC1CCCCCCC1,inactive
4,CCN(CC)C(C(=O)NC1CCCCC1)c1ccc(C)cc1 (stereo not drawn),inactive
5,CC(=O)c1cc2c(ccc3ccccc32)oc1=O,"inconclusive [cytotoxic, single point]"
6,COc1ccc(C2NC(=O)NC(c3ccccc3)=C2c2nc3ccccc3s2)cc1 (stereo not drawn),"inconclusive [cytotoxic, single point]"
7,O=C(N/N=C/c1ccccc1O)C1SCCCS1,"inconclusive [cytotoxic, partial curve]"
8,Nc1ncc(-c2ccccc2)c(-c2ccc(OCc3ccccc3)cc2O)n1,"inconclusive [cytotoxic, single point]"
9,COC(=O)c1ccc(Cn2cc(/C=C\[N+](=O)[O-])c3ccccc32)o1,"inconclusive [cytotoxic, single point]"
10,Cc1c(C(=O)N2CCC[C@H]2C(N)=O)oc2c(F)cccc12,inactive
11,CCCn1c(NC(=O)C2CCN(S(=O)(=O)c3cccs3)CC2)nc2ccccc21,"inconclusive [cytotoxic, single point]"
12,O=C(NC(c1ccc(Cl)cc1)c1cnccn1)C1CCN(Cc2ccc(Oc3ccccc3)cc2)CC1 (stereo not drawn),"inconclusive [cytotoxic, single point]"
13,COc1ccccc1N=CC1=C(O)CC(c2ccccc2)CC1=O (stereo not drawn),"inconclusive [cytotoxic, partial curve]"
14,O=C(NCCSc1ccccn1)c1ccc(Cl)cc1,inactive
15,COC(=O)C1=C(C)N(c2ccc(C)cc2)/C(=C/c2cccs2)C1=O,inactive
16,O=C(NNc1ccc([N+](=O)[O-])cc1[N+](=O)[O-])c1ccco1,active: 18.4 µM
17,COc1ccc(C(=O)Cn2c(=N)n(C)c3ccccc32)cc1,"inconclusive [cytotoxic, single point]"
18,O=S(=O)(NCc1ccccc1)c1ccc(-c2cnc(C3CC3)o2)cc1,"inconclusive [cytotoxic, partial curve, poor fit]"
19,Cc1ccc(C)c(-c2cc(C(=O)Nc3sc(C)c(C)c3C(N)=O)c3ccccc3n2)c1,"inconclusive [cytotoxic, single point]"
20,N#C/C(=C\Nc1ccc2cn[nH]c2c1)c1nc(-c2ccc(Cl)cc2)cs1,active: 18.4 µM
21,CCOc1ccc2[nH]c(=O)c(CN(Cc3ccc(F)cc3)C(=O)c3ccco3)cc2c1,"inconclusive [cytotoxic, partial curve]"
